91 compounds from PubChem BioAssay AID360 (National Center for Advancing Translational Sciences (NCATS), 2006) can be followed below.

Among all 48,000 compounds or so, about 550 (1.1%) were called active. Roughly 4% stayed inconclusive and do not appear here. No stated cut-off is given here; in the data, active means potency below about 15 µM; inconclusive means mostly about 16 µM to 33 µM; inactive means weaker than that. Some of the results follow. Some results are limits rather than exact numbers.
Potency means the concentration at half of the fitted maximal effect.

Chain of UniProt P04062 (P04062 whole entry, looked up): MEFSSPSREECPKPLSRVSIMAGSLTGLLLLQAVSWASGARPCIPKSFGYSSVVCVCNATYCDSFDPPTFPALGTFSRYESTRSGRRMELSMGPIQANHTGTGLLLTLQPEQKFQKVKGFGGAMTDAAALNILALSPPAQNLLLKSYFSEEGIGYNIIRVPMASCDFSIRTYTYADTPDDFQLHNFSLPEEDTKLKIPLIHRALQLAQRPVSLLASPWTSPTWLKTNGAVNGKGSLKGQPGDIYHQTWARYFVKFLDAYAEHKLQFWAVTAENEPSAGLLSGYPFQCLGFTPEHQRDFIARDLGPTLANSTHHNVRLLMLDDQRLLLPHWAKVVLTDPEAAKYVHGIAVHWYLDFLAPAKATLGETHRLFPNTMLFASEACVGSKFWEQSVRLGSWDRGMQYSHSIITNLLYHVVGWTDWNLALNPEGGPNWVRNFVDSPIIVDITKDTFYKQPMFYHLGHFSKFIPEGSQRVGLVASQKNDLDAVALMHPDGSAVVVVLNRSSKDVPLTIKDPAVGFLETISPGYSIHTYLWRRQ

This test deals with Lysosomal acid glucosylceramidase (Homo sapiens) (UniProt P04062). Kind of test: Glucocerebrosidase.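 Further: the screen sought inhibitors.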 Particulars: purified enzyme, resorufin glucoside fluorescence (screen aimed at inhibitors), 20 min; series mostly up to 77 µM. The method, boiled down:
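Normal human glucocerebrosidase (0.2 nM final) was assayed with resorufin β-D-glucopyranoside (30 uM final) in 50mM citric acid/KH2PO4, 10mM sodium taurocholate, 0.01% tween-20, pH 5.9. Compounds were titrated; fluorescence (Ex 548, Em 600) read after 20 min at RT.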
As to `CN1C=CC=C/C1=C(\C#N)c1nc2ccccc2[nH]1`, the Potency is inactive: > 76.9 µM.
Under `COC(=O)C1=C(C)N(c2cccc(C(C)=O)c2)C(=O)C1` stands inactive: > 76.9 µM.
Consider `O=C(NCC1CCCO1)c1csc2c1CCCCC2` (stereo unspecified), for which the Potency was inactive: > 76.9 µM.
Under `CC1(C)Oc2ccc(C(=O)N3CCc4ccccc43)cc2N(CC(=O)N2CCCC2)C1=O` stands inactive: > 76.9 µM; under `Cc1cc(C(=O)NCCCc2ccccc2)no1`, inactive: > 76.9 µM.
Under `COc1ccc2[nH]c(=O)c(CN(Cc3nnnn3Cc3ccc(F)cc3)CC3CCCO3)cc2c1` (stereo unspecified) stands inactive: > 76.9 µM; under `CCOC(=O)C1CCN(C(=O)CCn2c(=O)[nH]c3ccccc3c2=O)CC1`, inactive: > 76.9 µM.
Take `CN1CCN(C(=O)c2ccc3c(c2)NC(=O)C(N2CCOCC2)S3)CC1` (stereo unspecified): the Potency is inactive: > 76.9 µM.
On to `O=S(=O)(c1cccc(-n2cnnn2)c1)N1CCOCC1`, for which the Potency was inactive: > 76.9 µM.
Regarding `O=S(=O)(c1ccc(F)cc1)N1CCC(N2CCN(c3ccccc3)CC2)CC1`, the Potency is inactive: > 76.9 µM.
Under `COc1ccc2cc(C(c3nnnn3CCc3ccccc3)N3CCC(O)CC3)c(=O)[nH]c2c1` (stereo unspecified) stands “inactive”.
The figure for `COC(=O)c1ccc2[nH]c(C)cc(=O)c2c1` is inactive: > 76.9 µM.
The figure for `COC(=O)c1c(C)n(-c2ccc(OC)cc2)c2ccc(O)cc12` is inactive: > 76.9 µM; for `Cc1cccc2cc(CN(CCCO)C(=O)Nc3ccccc3Cl)c(=O)[nH]c12` it is inactive: > 76.9 µM.
Turning to `COc1ccc(CC(=O)OCn2nnc3ccccc3c2=O)cc1`, the Potency is inactive: > 76.9 µM.
The figure for `COc1ccc(OC)c(NC(=O)CSc2nnc(Cc3cccn3C)n2CCc2ccccc2)c1` is inactive: > 76.9 µM.
The figure for `NC(=O)c1cc(N)ccc1N1CCCC1` is inactive: > 76.9 µM; for `Cc1sc2ncn(CC(=O)OCC(=O)NC(C)(C)C)c(=O)c2c1C` it is inactive: > 76.9 µM; for `O=C(Cn1cnc2scc(-c3ccccc3)c2c1=O)N1CCOCC1` it is inactive: > 76.9 µM.
Under `Cc1c(Cl)cccc1-n1nnnc1-c1cccs1` stands inactive: > 76.9 µM; under `Cc1c(NC(=O)Cn2nc(C(F)(F)F)c3c2CCCC3)c(=O)n(-c2ccccc2)n1C`, inactive: > 76.9 µM; under `Cc1ccc2c(c1)N(CC(=O)NCc1cccs1)C(=O)CO2`, inactive: > 76.9 µM.
`CCOC(=O)C1CCCN(C(=O)c2cn(CC)c(=O)c3cc(OC)c(OC)cc23)C1` (stereo unspecified): the Potency is inactive: > 76.9 µM.
The figure for `COC(=O)C(O)(NC(=O)NC(C)=O)C(F)(F)F` (stereo unspecified) is inactive: > 76.9 µM.
The figure for `COc1ccc(Cn2nnnc2C(c2cc3cc(C)ccc3[nH]c2=O)N2CCOCC2)cc1` (stereo unspecified) is inactive: > 76.9 µM.
With `CCCCOc1ccccc1Cn1c(=O)oc2ccc(C)cc21`, the Potency was inactive: > 76.9 µM.
The figure for `CC1CC(C)(C)CC2(C1)NC(=O)N(CC(=O)NCC(c1ccco1)N1CCCCC1)C2=O` (stereo unspecified) is inactive: > 76.9 µM.
Under `O=C1SC(SCc2ccccc2)=N/C1=C\c1ccco1` stands inactive: > 76.9 µM.
As to `CC(C)c1nc2sc3c(NCc4ccco4)ncnc3c2c2c1COC(C)(C)C2`, the Potency was inactive: > 76.9 µM.
The figure for `O=C(CSc1nnc(C2COc3ccccc3O2)o1)N1CCCc2ccccc21` (stereo unspecified) is inactive: > 76.9 µM; for `CCC(OC(=O)c1cc2sccc2n1C)C(=O)NCc1ccco1` (stereo unspecified) it is inactive: > 76.9 µM; for `COc1cc(NC(=O)CN2CCN(c3ccccc3F)CC2)cc(OC)c1` it is inactive: > 76.9 µM.
Under `CCOc1ccc(C(=O)N2CCCC2)cc1OC` stands inactive: > 76.9 µM.
For `C=CCN=C(NC#N)SCC(=O)NCc1ccccc1`, the Potency is inactive: > 76.9 µM.
The figure for `COCCN(C(C)=O)c1nnc(-c2cnccn2)s1` is inactive: > 76.9 µM; for `Fc1ccccc1N1CCN(c2ncnc3[nH]ncc23)CC1` it is inactive: > 76.9 µM; for `CC(C)NC(=O)Cn1nnc(-c2ccc(Cl)cc2)n1` it is inactive: > 76.9 µM.
On to `Cc1ccc2c(c1)N(CCC(=O)NCc1ccco1)C(=O)CO2`, for which the Potency was inactive: > 76.9 µM.
The figure for `Cc1ccc(Nc2cc(=O)n(C3CCCCC3)c(=O)[nH]2)cc1C` is inactive: > 76.9 µM; for `CCc1ccc(CCC(=O)Nc2nnc(C)s2)o1` it is inactive: > 76.9 µM.
For `Cc1cc(C(=O)OCc2nnc(-c3ccccc3)o2)c(C)n1-c1ccccc1`, the Potency was inactive: > 76.9 µM.
The figure for `CCc1ccc(-c2nc(CN3CCC(C(=O)NCc4ccc(F)cc4)CC3)c(C)o2)cc1` is inactive: > 76.9 µM; for `O=S(=O)(Cc1ccccc1)N1CCN(C2Cc3ccccc3C2)CC1` it is inactive: > 76.9 µM; for `CCOC(=O)c1cnc(SCC(=O)NCc2ccco2)nc1N` it is inactive: > 76.9 µM.
The figure for `COC(=O)C1=C(C)N(C2CCCC2)C(=O)C1(NC(C)=O)C(F)(F)F` (stereo unspecified) is inactive: > 76.9 µM.
Take `Nc1nc(-c2ccccc2)cc(-c2ccccc2O)n1`: the Potency is inactive: > 76.9 µM.
Under `COc1ccc(S(=O)(=O)N(C)CC(=O)Nc2cccc(C(C)=O)c2)cc1` stands inactive: > 76.9 µM.
The entry for `CCOC(=O)N1CCC(NC(=O)C2CCN(c3ccc(N4CCOCC4)nn3)CC2)CC1` is “inactive”; for `Nc1nc(-c2ccccc2)cc(C(F)(F)F)n1` it is inactive: > 76.9 µM; for `CC(C)c1nc2oc3c(NCc4cccnc4)ncnc3c2c2c1CCC2` it is inactive: > 76.9 µM.
Under `CN(CCc1ccccn1)Cc1ccc(Cl)cc1` stands inactive: > 76.9 µM; under `CCOCCCNC(=O)c1ccccc1Br`, inactive: > 76.9 µM; under `Cn1c(=O)[nH]c(=O)c2[nH]c(N(Cc3ccccc3)Cc3ccccc3)nc21`, inactive: > 76.9 µM.
As for `CC(=O)NC(CCS(C)(=O)=O)C(=O)Nc1ccccc1Cl` (stereo unspecified), the Potency was inactive: > 76.9 µM.
Under `Cc1c(C(=O)O)oc2ccc(S(=O)(=O)N(CC(C)C)CC(C)C)cc12` stands inactive: > 76.9 µM; under `COc1ccc(CSc2nnc(N)s2)cc1F`, inactive: > 76.9 µM.
The figure for `O=C(O)CSc1nnc(Cc2ccccc2)n1-c1ccccc1` is inactive: > 76.9 µM; for `Cc1cc(S(=O)(=O)N(Cc2ccccc2)Cc2ccc(N(C)C)cc2)ccc1-n1cnnn1` it is active: 8.48 µM; for `Cc1nnc(SCc2ccc(C(=O)c3ccc(Cl)cc3)o2)n1-c1ccccc1` it is inactive: > 76.9 µM.
As for `CC(=O)Nc1cccc(NC(=O)C2CCCN2C(=O)Nc2cccc(C)c2)c1` (stereo unspecified), the Potency was inactive: > 76.9 µM.
For `O=C(NC1CCCCC1)n1c(=O)oc2ccccc21`, the Potency was inactive: > 76.9 µM.
Under `N#Cc1cccc(NC(=O)CSc2ccccc2)c1` stands inactive: > 76.9 µM; under `O=C(Nc1cnccn1)c1csc2ccccc12`, inactive: > 76.9 µM; under `COC(=O)c1ccc(C(=O)OC)c(NC(=O)COC(=O)C23CC4CC(CC(O)(C4)C2)C3)c1`, inactive: > 76.9 µM.
The figure for `COc1ccc(-n2nnnc2SCC(=O)N2C(C)CCCC2C)c(OC)c1` (stereo unspecified) is inactive: > 76.9 µM; for `COCCNC(=O)NC1(C(F)(F)F)Oc2ccc(Cl)cc2O1` (stereo unspecified) it is “inactive”; for `C/C(Cl)=C\Cn1c(NCCCn2ccnc2)nc2c1c(=O)n(C)c(=O)n2C` it is inactive: > 76.9 µM.
The figure for `COc1ccccc1-c1nc(C#N)c(N2CCN(C(c3ccccc3)c3ccccc3)CC2)o1` is inactive: > 76.9 µM.
As for `N#CCCn1c(SCC(=O)NCCc2ccc(F)cc2)nc2ccccc21`, the Potency was inactive: > 76.9 µM.
Turning to `CN1CCN(CC(=O)Nc2c(C(=O)C3CC3)oc3ccccc23)CC1`, the Potency was inactive: > 76.9 µM.
Regarding `COc1ccc(N2CCN(C(=O)c3cn(C4CCCC4)c(=O)c4c3c3ccccc3n4C)CC2)cc1`, the Potency is inactive: > 76.9 µM.
Under `Cc1ccc(-n2nc(C)c(C3C(C#N)=C(N)OC4=C3C(=O)CC(C)(C)C4)c2Cl)cc1` (stereo unspecified) stands active: 4.79 µM.
On to `COc1cccc(Cn2c(-c3nonc3N)nc3ccccc32)c1`, for which the Potency is inactive: > 76.9 µM.
Under `COC(=O)C1=C(C)NC(=O)C1(NC(=O)CN1CCCC1=O)C(F)(F)F` (stereo unspecified) stands inactive: > 76.9 µM; under `Cc1c(Nc2nc3ccccc3nc2NS(=O)(=O)c2ccccc2)c(=O)n(-c2ccccc2)n1C`, inactive: > 76.9 µM; under `Cc1ccc(C)c(C(=O)CCC(=O)Nc2cccnc2)c1`, inactive: > 76.9 µM.
The figure for `N#CCSc1nc2[nH]ncc2c(=O)n1-c1ccccc1Br` is inactive: > 76.9 µM; for `N#CC(=C1CCCC1)c1nc(-c2ccccc2O)cs1` it is inactive: > 76.9 µM; for `CCc1ccccc1N(CC)C(=O)c1cn(CC)c(=O)c2cc(OC)c(OC)cc12` it is inactive: > 76.9 µM.
The figure for `O=C(CSCc1ccccc1)N1CCN(Cc2ccc3c(c2)OCO3)CC1` is inactive: > 76.9 µM; for `CCO/C(C)=N/n1c2nc3ccccc3nc2c2c(=O)n(C3CCCC3)c(C)nc21` it is inactive: > 76.9 µM; for `Cc1ccc(C)c(S(=O)(=O)NCc2cccnc2)c1` it is inactive: > 76.9 µM.
As to `Cc1nnc(SCC(=O)Nc2ccc(Oc3ccccc3)cc2)n1N`, the Potency was inactive: > 76.9 µM.
On to `CC(C(=O)O)C1SC(=O)NC1=O` (stereo unspecified), for which the Potency was inactive: > 76.9 µM.
The figure for `CCOC(=O)CSc1nnc(-c2cccs2)n1-c1ccccc1` is inactive: > 76.9 µM; for `CSCC[C@H](NC(=O)Nc1cccc(C(F)(F)F)c1)C(=O)O` it is inactive: > 76.9 µM.
The figure for `CCN(CC)c1ccc(-c2nn3c(-c4ccccc4OC)nnc3s2)cc1` is inactive: > 76.9 µM; for `Cc1ccc2[nH]c(=O)c(CN(CCCO)S(=O)(=O)c3c(C)ccc4nsnc34)cc2c1` it is inactive: > 76.9 µM.
Under `CCCOC(=O)CSc1nc(N)c(C#N)c(CC)c1C#N` stands inactive: > 76.9 µM.
Consider `CC(C)(CN=C1NS(=O)(=O)c2ccccc21)CNC(=O)CN1C(=O)c2ccccc2C1=O`, for which the Potency was inactive: > 76.9 µM.
The entry for `Cc1ccccc1NC(=O)Cn1cnc2c(oc3ccccc32)c1=O` is “inactive”.
